{"source": "the supplement of paper PMC11417369", "note": "Some of the results follow."}
{"system": "PF3D7_0420300 AP2 domain 1 (GST-tagged)", "test": "gcPBM binding intensity (ln(normalized median fluorescence intensity)); higher = stronger DNA binding", "how_it_was_run": "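GST-tagged P. falciparum DNA-binding domains, expressed in E. coli (about 25 μg on average), were applied for 1 h to an Agilent 4 × 180k array of primer-extended double-stranded 36-bp intergenic genomic probes plus negative controls. The binding buffer was 1× PBS with 1% milk, 0.2 mg/ml BSA, 0.5% salmon testes DNA and 0.03% Triton X-100. Bound protein was detected with Alexa488 anti-GST antibody and scanned at 488 nm. Binding intensity is the highest Masliner-normalised natural-log median intensity across replicate spots of either probe orientation.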"}
{"sequence": "AATATATATATAAATAATATACCTATATATTTTTTG [XGTACX_negctrl_site407]", "gcPBM binding intensity (ln)": 9.08}
{"sequence": "AAAAACAATTTAATCACACATATATGTCACAAAGAT [CACACA_site5043]", "gcPBM binding intensity (ln)": 9.58}
{"sequence": "ATATTAAATATTATCACACACATAATTATTTCCATA [CACACA_site2334]", "gcPBM binding intensity (ln)": 9.62}
{"sequence": "ATATATATATATATATGTACATACATATTGTTTGGT [XGTACX_site2284]", "gcPBM binding intensity (ln)": 9.31}
{"sequence": "ATATAATAATATGGTTGTACATAAATAACACATGAA [XGTACX_site6592]", "gcPBM binding intensity (ln)": 9.49}
{"sequence": "CAAAATATTTTTTCCTGTACATAATTCCTATTTCAC [XGTACX_site3590]", "gcPBM binding intensity (ln)": 9.4}
{"sequence": "ATGATTATACAAAATATACACACGTGTAGACAAATA [CACACA_site1175]", "gcPBM binding intensity (ln)": 9.57}
{"sequence": "TAATAATAGAAACACACACACATAGACATATATATA [CACACA_site1307]", "gcPBM binding intensity (ln)": 10.1}
{"sequence": "TATTTTCAAAATGTTGTACACACAAAAAAAAAAAAA [CACACA_site8437]", "gcPBM binding intensity (ln)": 9.25}
{"sequence": "ATATACTTTTCAATGTGTACTTATGAATATATATGT [XGTACX_site7972]", "gcPBM binding intensity (ln)": 9.36}
{"sequence": "TATTTATAAATATGTGTGCACAATTTATTTTATAAT", "gcPBM binding intensity (ln)": 9.17}
{"sequence": "TTTTTTTTATATATCTGTACATATATATATATATAT [XGTACX_site8280]", "gcPBM binding intensity (ln)": 9.28}
{"sequence": "TTATTTCTAACATGATGTACTTTTATATTATATAAT [XGTACX_site3574]", "gcPBM binding intensity (ln)": 9.26}
{"sequence": "TTTTAACAAAACTAAATAATCATATATATAAGATAT [GTGCAC_negctrl_site298]", "gcPBM binding intensity (ln)": 9.01}
{"sequence": "CATTTCTATATAAGCACACACGTGGAATTTTTTTTT [CACACA_site5537]", "gcPBM binding intensity (ln)": 9.39}
{"sequence": "ATTATTTGAACAACAAAAAAAAAGAAAAGAAAAGAA [CACACA_negctrl_site1031]", "gcPBM binding intensity (ln)": 9.33}
{"sequence": "TCATATTATAAATAAATAAATAAATATATATATATA [CACACA_negctrl_site577]", "gcPBM binding intensity (ln)": 8.97}
{"sequence": "AAATCGTAATATATTTGTACTTATTTGAAAAATCCA [XGTACX_site8141]", "gcPBM binding intensity (ln)": 9}
{"sequence": "TTTTTTTTCTTTTTTTTAAGAAATAAATAAATAATT [XGTACX_negctrl_site137]", "gcPBM binding intensity (ln)": 8.7}
{"sequence": "TATATTTCATTATATTGTACAAAATATATATATTAT [XGTACX_site4644]", "gcPBM binding intensity (ln)": 9.04}
{"sequence": "CATTATATATATTACTAAAAATTTTACCCCTTAGCT [CACACA_negctrl_site302]", "gcPBM binding intensity (ln)": 9.17}
{"sequence": "ATACATGAATAAATATGTACACATATAAAAACATAT [XGTACX_site2740]", "gcPBM binding intensity (ln)": 9.59}
{"sequence": "ATGTATATAAATATACGTACATAAATATAAGTATAG [XGTACX_site7155]", "gcPBM binding intensity (ln)": 9.41}
{"sequence": "TTTTTTCTTTTTATGTGTACTTATTTTATTTAATAA [XGTACX_site1080]", "gcPBM binding intensity (ln)": 9.33}
{"sequence": "AAAAAAGAAAAAAAGTGTACAATATTTATTACATAT [XGTACX_site2277]", "gcPBM binding intensity (ln)": 9.35}
{"sequence": "TTTGTGTATATAACAGTGCAATATTATAAATATAAA [GTGCAC_site9750]", "gcPBM binding intensity (ln)": 9.16}
{"sequence": "AACCCAAAATAATTATGTACATATTTTTAAATATAT [XGTACX_site6487]", "gcPBM binding intensity (ln)": 9.33}
{"sequence": "ATAATCCTTGGACACACACACACACTAGTAAATAAA [CACACA_site4423]", "gcPBM binding intensity (ln)": 10.1}
{"sequence": "GCAAAGCACAAATATGCATGTAGATATAGAATAATG [TGCATGCA_site382]", "gcPBM binding intensity (ln)": 9.13}
{"sequence": "ACTTAATTTTTTTTATGTACTTATTTAAAAAATTTT [XGTACX_site2712]", "gcPBM binding intensity (ln)": 9.14}
{"sequence": "CTTAAAGGGAAAAATACACACATATAAATATTATGT [CACACA_site2225]", "gcPBM binding intensity (ln)": 9.47}
{"sequence": "TTAGTAGTATTATGTAGTACATAATTATCATATCAT [XGTACX_site817]", "gcPBM binding intensity (ln)": 9.13}
{"sequence": "TAATTATTTTTATATTGTACAATATGTAAATATATA [XGTACX_site592]", "gcPBM binding intensity (ln)": 8.9}
{"sequence": "TTTTTTGAATTTAAAAGTACAGGCTTTTACCAAATA [XGTACX_site1356]", "gcPBM binding intensity (ln)": 8.76}
{"sequence": "AATTAAAAAAAAAAAAAAAAAAAAAAATGAAAAAAA [CACACA_negctrl_site1073]", "gcPBM binding intensity (ln)": 9.02}
{"sequence": "ATAAATAAATAAATCTGTACATATGTATATGTATAT [XGTACX_site4537]", "gcPBM binding intensity (ln)": 9.27}
{"sequence": "AAAAAAAAAAAAAAAAGTACATACAACATTATGAAA [XGTACX_site207]", "gcPBM binding intensity (ln)": 9.35}
{"sequence": "ATAATAACTTGTAAGGTGCATTTTATGTTTTCTTAA", "gcPBM binding intensity (ln)": 9.26}
{"sequence": "AGAAATAATATTATTCAAGTATTTATTTAATTTTCA [GTGCAC_negctrl_site475]", "gcPBM binding intensity (ln)": 8.91}
{"sequence": "CTCATCCTTACATACACACACATATATTTATTTATA [CACACA_site6202]", "gcPBM binding intensity (ln)": 10}
{"sequence": "AAATTATAGAATCATTGTACTTTTTTTTTTTTTTTT [XGTACX_site1280]", "gcPBM binding intensity (ln)": 9.14}
{"sequence": "TATGCTTCAAAATTGTGTACATATATAATATATTAT [XGTACX_site6760]", "gcPBM binding intensity (ln)": 9.26}
{"sequence": "TTAATAATTATAACATGTACATACACTAAATTTTTT [XGTACX_site8953]", "gcPBM binding intensity (ln)": 9.15}
{"sequence": "CAAATATATATTTATTGTACATATTGTTTATATGGT [XGTACX_site5246]", "gcPBM binding intensity (ln)": 9.18}
{"sequence": "TATAAAATTATGTGTACACAAATATAACTTTTCTTT [CACACA_site5554]", "gcPBM binding intensity (ln)": 9.16}
{"sequence": "CATCCAAAAATATTATGTACTAAATTTGGATGTATT [XGTACX_site3954]", "gcPBM binding intensity (ln)": 9.15}
{"sequence": "AAAATATTTCTTCTTTGTACTTATATATATTTAATT [XGTACX_site5446]", "gcPBM binding intensity (ln)": 9.31}
{"sequence": "TATTCATATTCCAAGTGTACACATAAATCCCTAATA [XGTACX_site4131]", "gcPBM binding intensity (ln)": 9.26}
{"sequence": "TACTTACCTATAATAACACACAAGAAAAAAATAAAA [CACACA_site6616]", "gcPBM binding intensity (ln)": 9.65}
{"sequence": "AAATAATATCATAAATGTACATATATCATATTATTA [XGTACX_site5372]", "gcPBM binding intensity (ln)": 9.19}
{"sequence": "CAAAATGTTAAAGATACACACCTAACAAACACAAAA [CACACA_site4685]", "gcPBM binding intensity (ln)": 9.65}
{"sequence": "AATTCTTTACTATTCACACATATAAATATTCACTTT [CACACA_site4886]", "gcPBM binding intensity (ln)": 9.57}
{"sequence": "AAATCCATATAGGATTGTACATATATTATATATATA [XGTACX_site8818]", "gcPBM binding intensity (ln)": 9.27}
{"sequence": "AAAAATATTTAAAATACACACATATCTATAATATAT [CACACA_site7032]", "gcPBM binding intensity (ln)": 9.52}
{"sequence": "GTGGTATAAATTTTATGTACTTAATAACTCATTAAT [XGTACX_site5555]", "gcPBM binding intensity (ln)": 9.28}
{"sequence": "ACATATATATTTATATGTACATATATTTATATATAT [XGTACX_site7469]", "gcPBM binding intensity (ln)": 9.11}
{"sequence": "AAAAAAAAAAAACACACACACACAAATACATACACA [CACACA_site706]", "gcPBM binding intensity (ln)": 10.2}
